In article PMC6220479 (Journal for Immunotherapy of Cancer, 2018) one finds Kd data, which are given here for 2 molecules.

Common to all, as to conditions: both partners purified
For assay [1], the target named is T1, immobilized PD-L2 (UniProt Q9BQ51 20-220).
T1 construct: PD-L2; construct not described
T1 sequence (looked up): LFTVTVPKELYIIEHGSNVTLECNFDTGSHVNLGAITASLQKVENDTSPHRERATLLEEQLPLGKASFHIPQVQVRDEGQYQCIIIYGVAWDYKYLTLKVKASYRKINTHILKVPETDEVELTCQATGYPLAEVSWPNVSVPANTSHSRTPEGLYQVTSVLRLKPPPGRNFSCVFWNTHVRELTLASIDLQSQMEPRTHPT
In words: not stated; PD-L1, PD-L2 or OX40 immobilized.

Assay [2] deals with PD-L1 (UniProt Q9NZQ7, construct not described; extracellular domain taken from UniProt features). In words: not stated; PD-L1, PD-L2 or OX40 immobilized.
The target of assay [3] is immobilized OX40 (UniProt P43489 29-277, construct not described; extracellular domain taken from UniProt features, immobilized). In words: not stated; PD-L1, PD-L2 or OX40 immobilized.
For assay [4], the target named is immobilized CD40 (UniProt P25942 21-277, construct not described; extracellular domain taken from UniProt features, immobilized). In words: not stated; CD47 or CD40 immobilized.
For assay [5], the target named is CD47 (UniProt Q08722, construct not described; N-terminal extracellular IgV domain taken from UniProt features; native N-terminal pyroglutamate and N-glycans possible). The assay can be described thus: not stated; CD47 or CD40 immobilized.

CD47, sequence (Q08722 19-323): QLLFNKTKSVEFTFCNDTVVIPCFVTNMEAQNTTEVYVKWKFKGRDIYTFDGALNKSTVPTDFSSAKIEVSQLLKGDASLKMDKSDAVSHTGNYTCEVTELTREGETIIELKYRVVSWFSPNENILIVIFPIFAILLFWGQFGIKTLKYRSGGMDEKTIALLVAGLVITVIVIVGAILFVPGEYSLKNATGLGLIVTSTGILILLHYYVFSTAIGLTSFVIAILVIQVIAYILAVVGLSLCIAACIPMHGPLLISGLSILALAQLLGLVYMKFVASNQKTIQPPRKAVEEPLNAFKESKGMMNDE
PD-L1, sequence (Q9NZQ7 19-290): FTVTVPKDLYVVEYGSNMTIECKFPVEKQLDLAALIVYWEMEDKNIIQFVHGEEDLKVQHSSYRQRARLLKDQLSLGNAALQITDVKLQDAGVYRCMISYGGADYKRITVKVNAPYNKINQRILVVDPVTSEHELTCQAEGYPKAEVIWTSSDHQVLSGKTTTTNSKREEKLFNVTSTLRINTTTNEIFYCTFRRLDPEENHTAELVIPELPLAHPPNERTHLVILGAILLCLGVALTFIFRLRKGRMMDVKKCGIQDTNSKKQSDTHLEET
UniProt P43489, sequence (P43489 29-277): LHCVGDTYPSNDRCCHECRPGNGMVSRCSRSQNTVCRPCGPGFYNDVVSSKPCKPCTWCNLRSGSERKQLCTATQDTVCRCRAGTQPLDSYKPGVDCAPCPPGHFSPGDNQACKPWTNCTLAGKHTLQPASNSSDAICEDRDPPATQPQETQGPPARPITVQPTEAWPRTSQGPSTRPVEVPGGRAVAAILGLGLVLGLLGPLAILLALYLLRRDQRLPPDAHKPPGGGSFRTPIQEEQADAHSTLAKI
UniProt P25942, sequence (P25942 21-277): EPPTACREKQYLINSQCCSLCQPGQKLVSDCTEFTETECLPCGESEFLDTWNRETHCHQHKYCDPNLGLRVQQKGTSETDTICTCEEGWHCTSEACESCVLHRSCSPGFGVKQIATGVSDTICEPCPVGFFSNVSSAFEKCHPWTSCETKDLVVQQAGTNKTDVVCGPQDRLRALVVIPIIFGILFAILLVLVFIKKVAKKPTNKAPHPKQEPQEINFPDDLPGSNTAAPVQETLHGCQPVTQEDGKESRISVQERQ

B1: PD1-Fc-OX40L, Agonist Redirected Checkpoint (ARC) fusion protein (Fc fusion)
chain: [about 150 residues not given here]QVSHRYPRIQSIKVQFTEYKKEKGFILTSQKEDEIMKVQNNSVIINCDGFYLISLKGYFSQEVNISLHYQKDEEPLFQLKKVRSVNSLMVASLTYKDKVYLNVTTDNTSLDDFHVNGGELILIHQNPGEFCVL
notes: PD-1 extracellular domain (type I ECD); OX40L extracellular domain (type II ECD); abstract P657; not shown: Fc, internal (between the two extracellular domains), kept
As a reminder, the Kd is a measure of binding affinity in units of concentration. On to B1, for which the Kd in assay [1] was determined as 1.76 nM; in assay [2], 2.08 nM; in assay [3] it was 0.246 nM.

B2: SIRPα-Fc-CD40L, Agonist Redirected Checkpoint (ARC) fusion protein (Fc fusion, human)
chain: [about 350 residues not given here]HRRLDKIEDERNLHEDFVFMKTIQRCNTGERSLSLLNCEEIKSQFEGFVKDIMLNKEETKKENSFEMQKGDQNPQIAAHVISEASSKTTSVLQWAEKGYYTMSNNLVTLENGKQLTVKRQGLYYIYAQVTFCSNREASSQAPFIASLCLKSPGRFERILLRAANTHSSAKPCGQQSIHLGGVFELQPGASVFVNVTDPSQVSHGTGFTSFGLLKL
notes: SIRPα extracellular domain; CD40L extracellular domain; human and mouse versions were produced; the abstract calls the reported molecule a human fusion protein; not shown: Fc, internal (between the two extracellular domains), kept
Take B2: the values for the Kd in assay [4] and in assay [5] were 0.756 nM and 3.59 nM, respectively.
